Measured values reported in PMC3841200.
No constants are given. Whether binding was seen depends on the method and setting. For some assays here: In cells and extracts the contact can be indirect. Some binding calls cover weakened binding; strength is not graded here. Tags and fused reporters may be left off the sequences shown.

T1: CPL1^640–967-cYFP (Arabidopsis thaliana) (UniProt Q5YDB6)
T1 sequence: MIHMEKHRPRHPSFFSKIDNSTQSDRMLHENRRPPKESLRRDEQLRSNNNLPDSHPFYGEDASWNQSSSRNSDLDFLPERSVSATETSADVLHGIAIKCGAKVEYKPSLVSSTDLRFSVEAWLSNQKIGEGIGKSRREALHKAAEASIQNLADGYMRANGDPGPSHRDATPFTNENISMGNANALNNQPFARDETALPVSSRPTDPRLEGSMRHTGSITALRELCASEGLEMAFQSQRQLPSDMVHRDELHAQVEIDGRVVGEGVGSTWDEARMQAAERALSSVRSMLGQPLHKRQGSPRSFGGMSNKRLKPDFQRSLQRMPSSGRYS

T2: GAL4 DNA-binding domain fused with RCF3 (BD:RCF3) (Arabidopsis thaliana) (UniProt Q8W4B1)
T2 sequence: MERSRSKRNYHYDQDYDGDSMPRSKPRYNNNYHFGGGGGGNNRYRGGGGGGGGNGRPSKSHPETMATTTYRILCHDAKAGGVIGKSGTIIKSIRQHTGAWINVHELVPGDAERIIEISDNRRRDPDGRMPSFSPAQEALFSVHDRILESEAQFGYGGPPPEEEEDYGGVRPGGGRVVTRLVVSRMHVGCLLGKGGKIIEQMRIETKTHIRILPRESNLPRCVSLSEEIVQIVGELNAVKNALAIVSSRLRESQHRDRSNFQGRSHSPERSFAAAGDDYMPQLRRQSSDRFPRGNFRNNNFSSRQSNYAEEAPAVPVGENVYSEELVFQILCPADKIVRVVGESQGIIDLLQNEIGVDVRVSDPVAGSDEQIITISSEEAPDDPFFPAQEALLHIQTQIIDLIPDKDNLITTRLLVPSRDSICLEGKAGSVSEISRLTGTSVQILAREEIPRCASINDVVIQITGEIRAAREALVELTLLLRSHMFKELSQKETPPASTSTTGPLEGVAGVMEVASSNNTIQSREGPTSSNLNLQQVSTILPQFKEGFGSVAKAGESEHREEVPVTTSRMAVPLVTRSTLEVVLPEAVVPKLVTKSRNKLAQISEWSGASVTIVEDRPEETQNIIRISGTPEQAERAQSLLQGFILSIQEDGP

B1: RCF3-nYFP (protein, UniProt Q8W4B1 1-652)
chain: MERSRSKRNYHYDQDYDGDSMPRSKPRYNNNYHFGGGGGGNNRYRGGGGGGGGNGRPSKSHPETMATTTYRILCHDAKAGGVIGKSGTIIKSIRQHTGAWINVHELVPGDAERIIEISDNRRRDPDGRMPSFSPAQEALFSVHDRILESEAQFGYGGPPPEEEEDYGGVRPGGGRVVTRLVVSRMHVGCLLGKGGKIIEQMRIETKTHIRILPRESNLPRCVSLSEEIVQIVGELNAVKNALAIVSSRLRESQHRDRSNFQGRSHSPERSFAAAGDDYMPQLRRQSSDRFPRGNFRNNNFSSRQSNYAEEAPAVPVGENVYSEELVFQILCPADKIVRVVGESQGIIDLLQNEIGVDVRVSDPVAGSDEQIITISSEEAPDDPFFPAQEALLHIQTQIIDLIPDKDNLITTRLLVPSRDSICLEGKAGSVSEISRLTGTSVQILAREEIPRCASINDVVIQITGEIRAAREALVELTLLLRSHMFKELSQKETPPASTSTTGPLEGVAGVMEVASSNNTIQSREGPTSSNLNLQQVSTILPQFKEGFGSVAKAGESEHREEVPVTTSRMAVPLVTRSTLEVVLPEAVVPKLVTKSRNKLAQISEWSGASVTIVEDRPEETQNIIRISGTPEQAERAQSLLQGFILSIQEDGP
B2: GAL4 activation domain fused with full-length CPL1 (AD:C1F) (enzyme, UniProt Q5YDB6 1-967)
chain: MYSNNRVEVFHGDGRLGELEIYPSRELNQQQDDVMKQRKKKQREVMELAKMGIRISHFSQSGERCPPLAILTTISSCGLCFKLEASPSPAQESLSLFYSSCLRDNKTAVMLLGGEELHLVAMYSENIKNDRPCFWAFSVAPGIYDSCLVMLNLRCLGIVFDLDETLVVANTMRSFEDKIDGFQRRINNEMDPQRLAVIVAEMKRYQDDKNLLKQYIESDQVVENGEVIKVQSEIVPALSDNHQPLVRPLIRLQEKNIILTRINPMIRDTSVLVRMRPSWEELRSYLTAKGRKRFEVYVCTMAERDYALEMWRLLDPEGNLINTNDLLARIVCVKSGFKKSLFNVFLDGTCHPKMALVIDDRLKVWDEKDQPRVHVVPAFAPYYSPQAEAAATPVLCVARNVACGVRGGFFRDFDDSLLPRIAEISYENDAEDIPSPPDVSHYLVSEDDTSGLNGNKDPLSFDGMADTEVERRLKEAISASSAVLPAANIDPRIAAPVQFPMASASSVSVPVPVQVVQQAIQPSAMAFPSIPFQQPQQPTSIAKHLVPSEPSLQSSPAREEGEVPESELDPDTRRRLLILQHGQDTRDPAPSEPSFPQRPPVQAPPSHVQSRNGWFPVEEEMDPAQIRRAVSKEYPLDSEMIHMEKHRPRHPSFFSKIDNSTQSDRMLHENRRPPKESLRRDEQLRSNNNLPDSHPFYGEDASWNQSSSRNSDLDFLPERSVSATETSADVLHGIAIKCGAKVEYKPSLVSSTDLRFSVEAWLSNQKIGEGIGKSRREALHKAAEASIQNLADGYMRANGDPGPSHRDATPFTNENISMGNANALNNQPFARDETALPVSSRPTDPRLEGSMRHTGSITALRELCASEGLEMAFQSQRQLPSDMVHRDELHAQVEIDGRVVGEGVGSTWDEARMQAAERALSSVRSMLGQPLHKRQGSPRSFGGMSNKRLKPDFQRSLQRMPSSGRYS
B3: GAL4 activation domain fused with CPL1^699–967 (domain or fragment, UniProt Q5YDB6 699-967)
chain: EDASWNQSSSRNSDLDFLPERSVSATETSADVLHGIAIKCGAKVEYKPSLVSSTDLRFSVEAWLSNQKIGEGIGKSRREALHKAAEASIQNLADGYMRANGDPGPSHRDATPFTNENISMGNANALNNQPFARDETALPVSSRPTDPRLEGSMRHTGSITALRELCASEGLEMAFQSQRQLPSDMVHRDELHAQVEIDGRVVGEGVGSTWDEARMQAAERALSSVRSMLGQPLHKRQGSPRSFGGMSNKRLKPDFQRSLQRMPSSGRYS
B4: MYB75-nYFP (protein, UniProt Q9FE25 1-248)
chain: MEGSSKGLRKGAWTTEEDSLLRQCINKYGEGKWHQVPVRAGLNRCRKSCRLRWLNYLKPSIKRGKLSSDEVDLLLRLHRLLGNRWSLIAGRLPGRTANDVKNYWNTHLSKKHEPCCKIKMKKRDITPIPTTPALKNNVYKPRPRSFTVNNDCNHLNAPPKVDVNPPCLGLNINNVCDNSIIYNKDKKKDQLVNNLIDGDNMWLEKFLEESQEVDILVPEATTTEKGDTLAFDVDQLWSLFDGETVKFD
B5: GAL4 activation domain fused with CPL2 dsRBM (AD:C2^602–770) (domain or fragment, UniProt Q5YDB5 602-770)
chain: PSHLRSEEVAMDDDLKRQNPSRQTTEGGISQNHLVSNGREHHTDGGKSNGGQSHLFVSALQEIGRRCGSKVEFRTVISTNKELQFSVEVLFTGEKIGIGMAKTKKDAHQQAAENALRSLAEKYVAHVAPLARETEKGPENDNGFLWESSEDVSNKGLEEEAPKENISEL

How the values were obtained:
[1] = molecular target: T1, CPL1^640–967-cYFP (Arabidopsis thaliana); experiment: split reporter; BiFC; nYFP and cYFP fusions co-expressed in Arabidopsis mesophyll protoplasts; YFP fluorescence one day after transformation
[2] = molecular target: T2, GAL4 DNA-binding domain fused with RCF3 (BD:RCF3) (Arabidopsis thaliana); experiment: two-hybrid; yeast PJ69-4A; GAL4-BD (pBUTE^GW) and GAL4-AD (pGAD^GW) fusions, both orientations; growth on SD -ULHA with X-alpha-gal, 28°C, 48 h

Row | Binder | binding [1] | binding [2]
1 | B1 | binds | –
2 | B2 | – | binds
3 | B3 | – | binds
4 | B4 | no binding | –
5 | B5 | – | no binding
